Experimental data as given in the supplement of paper PMC12217912.
The other results are listed elsewhere or left out. Sequences were assembled here from the parent chain. Values near 0.05 are background.

B1: TEV protease; numbered along this chain (parent)
chain: MGESLFKGPRDYNPISSSICHLTNESDGHTTSLYGIGFGPFIITNKHLFRRNNGTLVVQSLHGVFKVKDTTTLQQHLVDGRDMIIIRMPKDFPPFPQKLKFREPQREERICLVTTNFQTKSMSSMVSDTSCTFPSGDGIFWKHWIQTKDGQCGSPLVSTRDGFIVGIHSASNFTNTNNYFTSVPKNFMELLTNQEAQQWVSGWRLNADSVLWGGHKVFMVKPEEPFQPVKEATQL

Variants of: B1
Assay: raw area under fraction-flipped curve 0-4 h after induction (AUC4h, not background-subtracted), DNA-recorder readout of cleavage of the substrate (dimensionless); higher = more cleavage of the substrate by the protease variant
Conditions: temperature: 34 °C; time window: 0-4 h after rhamnose induction
Experimental: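 In vivo DNA recorder in E. coli TOP10(DE3) ΔrhaA at 34 °C. Each TEVp single-site mutant (parent TEVp 0) is paired with a single-site variant of the 7-mer TEVs (canonical ENLYFQ|S). The substrate sits between flexible linkers in a Bxb1-sfGFP-TEVs-SsrA fusion, so cleavage stabilises Bxb1 and speeds flipping of a recombination array, read by NGS. The value is the raw area under the fraction-flipped curve over 0-4 h after rhamnose induction (AUC4h), with ≥20 reads per time point. It is not background-subtracted; inactive controls average about 0.047.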
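Further: Bxb1 expression induced with 0.2% (w/v) L-rhamnose at OD600 near 0.5, cultures sampled hourly, flipped fraction per protease–substrate barcode pair counted by paired-end Illumina sequencing.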

| Variant | area with substrate ENLAFQS | area with substrate ENLDFQS | area with substrate ENLFFQS | area with substrate ENLGFQS | area with substrate ENLHFQS | area with substrate ENLIFQS | area with substrate ENLKFQS | area with substrate ENLLFQS | area with substrate ENLMFQS | area with substrate ENLNFQS | area with substrate ENLPFQS | area with substrate ENLRFQS | area with substrate ENLSFQS | area with substrate ENLTFQS | area with substrate ENLVFQS | area with substrate ENLWFQS | area with substrate ENLEFQS | area with substrate ENLCFQS | area with substrate ENLQFQS |
| --- | --- | --- | --- | --- | --- | --- | --- | --- | --- | --- | --- | --- | --- | --- | --- | --- | --- | --- | --- |
| C152S | 0.0596 | 0.0646 | 0.0611 | 0.0667 | 0.0568 | 0.0682 | 0.066 | 0.0633 | 0.0652 | 0.0586 | 0.055 | 0.0595 | 0.0509 | 0.0544 | 0.066 | 0.0583 |  |  |  |
| T132V | 0.106 | 0.0628 | 0.0869 | 0.0802 | 0.0596 | 0.0849 | 0.0674 | 0.07 | 0.0722 | 0.0732 | 0.0566 | 0.0707 | 0.0536 |  |  | 0.0591 | 0.0424 |  |  |
| T147E | 0.0609 | 0.0675 | 0.0641 | 0.0753 | 0.0748 | 0.0681 | 0.0456 | 0.0538 | 0.0798 | 0.0665 | 0.0625 | 0.0595 | 0.0506 |  |  |  | 0.067 | 0.0627 | 0.059 |
| T147N | 0.0475 | 0.0618 | 0.063 | 0.0614 | 0.0349 | 0.0629 | 0.0513 | 0.0548 | 0.0623 | 0.066 | 0.071 |  | 0.0649 |  |  |  | 0.0625 |  | 0.0583 |
| N175C | 0.072 | 0.0993 | 0.0907 |  | 0.0677 |  | 0.073 |  |  | 0.066 | 0.0379 | 0.086 |  |  |  |  |  |  | 0.0681 |
| N175F | 0.0513 | 0.0687 |  |  | 0.0517 | 0.0809 | 0.0723 | 0.0978 | 0.0951 |  | 0.0551 |  | 0.0918 |  |  | 0.0599 | 0.095 | 0.0729 | 0.0603 |
| G150K | 0.0538 | 0.0691 | 0.078 |  | 0.0576 | 0.0559 | 0.0513 | 0.0554 |  |  |  | 0.0449 | 0.0523 |  | 0.0523 | 0.0481 | 0.0638 | 0.0645 | 0.0812 |
| G150R | 0.0524 | 0.0608 | 0.067 |  | 0.0574 | 0.0587 | 0.0635 | 0.0541 | 0.045 | 0.0692 | 0.0534 | 0.068 | 0.0629 | 0.0499 | 0.0482 | 0.112 | 0.063 | 0.0656 | 0.0708 |
| P155A | 0.0618 | 0.0652 | 0.0874 | 0.0712 |  | 0.0791 | 0.0796 | 0.0938 | 0.0505 | 0.0591 | 0.0631 | 0.0636 | 0.0531 | 0.0757 |  | 0.068 | 0.0602 | 0.0792 | 0.082 |
| P155W | 0.0703 | 0.06 | 0.0582 | 0.0643 | 0.0547 | 0.0512 | 0.0505 | 0.0282 | 0.0511 | 0.0628 | 0.0549 |  | 0.0578 |  | 0.0616 | 0.0477 | 0.0617 | 0.0608 | 0.0473 |
| T181L | 0.0499 | 0.0621 | 0.0687 |  | 0.0751 |  | 0.0666 |  | 0.0637 | 0.0654 | 0.0467 |  | 0.0612 |  |  |  |  | 0.0765 |  |
| I164C | 0.0669 | 0.0636 | 0.092 | 0.0657 | 0.0674 | 0.0632 | 0.0705 |  |  | 0.0537 |  | 0.0685 | 0.0642 |  | 0.0755 | 0.0571 | 0.0576 | 0.0818 | 0.0544 |
| S127D | 0.0758 | 0.058 | 0.0786 |  | 0.0561 | 0.0791 | 0.0773 | 0.0781 |  | 0.0732 | 0.0755 | 0.069 |  | 0.0631 | 0.073 |  | 0.0649 | 0.0694 | 0.0754 |
| S127P | 0.072 | 0.0563 | 0.0804 | 0.069 | 0.0759 | 0.0637 | 0.0913 | 0.0667 | 0.0655 | 0.0636 | 0.0627 | 0.061 | 0.0716 |  | 0.0659 |  | 0.0606 | 0.0778 | 0.0681 |
| N177A | 0.0954 | 0.0801 | 0.0758 | 0.0643 | 0.0664 | 0.0861 | 0.0791 | 0.09 | 0.0802 | 0.0595 | 0.0634 | 0.0634 |  |  | 0.1 |  |  | 0.0739 |  |
| F163R | 0.0617 | 0.0696 | 0.0942 | 0.0172 | 0.0841 | 0.0745 | 0.0449 | 0.0945 | 0.0662 | 0.0677 | 0.0553 | 0.0795 | 0.0768 |  |  |  | 0.0672 | 0.0824 |  |
| F163V | 0.0787 | 0.0584 | 0.0895 |  |  |  | 0.0727 |  |  | 0.0656 | 0.0553 |  | 0.0585 |  |  |  |  |  |  |
| I139A | 0.0624 |  | 0.0943 | 0.0682 | 0.0634 | 0.104 | 0.0777 | 0.0748 |  | 0.0701 | 0.0601 |  | 0.049 | 0.0685 | 0.0436 | 0.0682 | 0.0448 | 0.0705 | 0.0527 |
| I139G | 0.0676 |  | 0.0934 |  | 0.056 |  | 0.0711 | 0.0456 |  | 0.062 | 0.0604 | 0.097 | 0.0617 |  | 0.0678 | 0.0628 |  |  | 0.0564 |
| V157A | 0.0593 |  | 0.0718 |  | 0.0655 | 0.0728 | 0.0835 | 0.0629 | 0.13 | 0.0627 | 0.0551 |  | 0.0633 |  |  | 0.0673 | 0.0535 |  | 0.0626 |
| I145F | 0.061 |  | 0.0788 | 0.0699 |  | 0.09 |  |  | 0.0596 |  | 0.0288 | 0.076 |  |  | 0.0886 | 0.0641 |  | 0.117 |  |
| K148G | 0.0744 | 0.0546 | 0.0507 |  | 0.0549 | 0.0711 | 0.0712 | 0.0596 | 0.0472 | 0.0574 | 0.0665 | 0.0695 | 0.0674 |  | 0.0733 | 0.0501 |  | 0.0677 |  |
| F133E | 0.0524 | 0.0579 | 0.101 | 0.0694 | 0.0708 | 0.111 | 0.0921 | 0.0703 |  | 0.0558 | 0.0433 | 0.088 | 0.0947 |  | 0.117 | 0.0643 |  | 0.0696 |  |
| F133N | 0.0826 | 0.0578 | 0.082 | 0.0679 | 0.0705 | 0.0766 | 0.0949 | 0.0955 | 0.0683 | 0.0673 | 0.0601 |  | 0.066 |  |  |  |  |  |  |
| S135A | 0.0625 | 0.0578 |  | 0.083 | 0.0435 | 0.0592 | 0.0671 | 0.069 | 0.0554 | 0.0692 | 0.0623 | 0.0645 | 0.0603 |  |  | 0.0506 | 0.0591 | 0.056 |  |
